# According to the supplement of paper PMC8728848:
# The other results are listed elsewhere or left out.
# Legend:
# Assay in all cases: glycan array binding signal (z-score within array); higher = stronger binding
# Details in all cases: glycan notation: IUPAC condensed, linker removed
# [1] = target: Fuc(a1-2)Gal
# Method in brief: (§1)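 Glycan array data came from 3228 arrays in the Consortium for Functional Glycomics database, and only arrays with an available protein sequence were kept. Glycan names were put into IUPAC-condensed notation, and columns mapping to the same glycan were averaged. The binding signal is a within-array Z-score, averaged across arrays of one protein sequence run at different concentrations or buffers and across linkers. A negative Z-score can be read as non-binding.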
# [2] = target: Fuc(a1-2)Gal(b1-3)GalNAc
# Method in brief: as §1
# [3] = target: Fuc(a1-2)Gal(b1-3)GalNAc(a1-3)[Fuc(a1-2)]Gal(b1-4)Glc
# Method in brief: as §1
# [4] = target: Fuc(a1-2)Gal(b1-3)GalNAc(a1-3)[Fuc(a1-2)]Gal(b1-4)GlcNAc
# Method in brief: as §1
# [5] = target: Fuc(a1-2)Gal(b1-3)GalNAc(b1-3)Gal
# Method in brief: as §1
# [6] = target: Fuc(a1-2)Gal(b1-3)GalNAc(b1-3)Gal(a1-4)Gal(b1-4)Glc
# Method in brief: as §1
# [7] = target: Fuc(a1-2)Gal(b1-3)GalNAc(b1-4)[Neu5Ac(a2-3)]Gal(b1-4)Glc
# Method in brief: as §1
# [8] = target: Fuc(a1-2)Gal(b1-3)GlcNAc
# Method in brief: as §1
# [9] = target: Fuc(a1-2)Gal(b1-3)GlcNAc(b1-2)Man(a1-3)[Fuc(a1-2)Gal(b1-3)GlcNAc(b1-2)Man(a1-6)]Man(b1-4)GlcNAc(b1-4)GlcNAc
# Method in brief: as §1
# [10] = target: Fuc(a1-2)Gal(b1-3)GlcNAc(b1-3)Gal(b1-4)Glc
# Method in brief: as §1
# [11] = target: Fuc(a1-2)Gal(b1-3)GlcNAc(b1-3)[Fuc(a1-3)[Gal(b1-4)]GlcNAc(b1-6)]Gal(b1-4)Glc
# Method in brief: as §1
# [12] = target: Fuc(a1-2)Gal(b1-3)[Fuc(a1-4)]GlcNAc
# Method in brief: as §1
# [13] = target: Fuc(a1-2)Gal(b1-3)[Fuc(a1-4)]GlcNAc(b1-2)Man(a1-3)[Fuc(a1-2)Gal(b1-3)[Fuc(a1-4)]GlcNAc(b1-2)Man(a1-6)]Man(b1-4)GlcNAc(b1-4)GlcNAc
# Method in brief: as §1
# [14] = target: Fuc(a1-2)Gal(b1-3)[Fuc(a1-4)]GlcNAc(b1-3)[Fuc(a1-3)[Gal(b1-4)]GlcNAc(b1-6)]Gal(b1-4)Glc
# Method in brief: as §1
# [15] = target: Fuc(a1-2)Gal(b1-3)[Fuc(a1-4)]GlcNAc(b1-3)[Gal(b1-4)GlcNAc(b1-6)]Gal(b1-4)Glc
# Method in brief: as §1
# [16] = target: Fuc(a1-2)Gal(b1-4)Glc
# Method in brief: as §1
# [17] = target: Fuc(a1-2)Gal(b1-4)Glc6S
# Method in brief: as §1
# [18] = target: Fuc(a1-2)Gal(b1-4)GlcNAc
# Method in brief: as §1
# [19] = target: Fuc(a1-2)Gal(b1-4)GlcNAc(b1-2)Man(a1-3)[Fuc(a1-2)Gal(b1-4)GlcNAc(b1-2)Man(a1-6)]Man(b1-4)GlcNAc(b1-4)GlcNAc
# Method in brief: as §1
# [20] = target: Fuc(a1-2)Gal(b1-4)GlcNAc(b1-3)Gal(b1-4)GlcNAc
# Method in brief: as §1
# [21] = target: Fuc(a1-2)Gal(b1-4)GlcNAc(b1-3)Gal(b1-4)GlcNAc(b1-3)Gal(b1-4)GlcNAc
# Method in brief: as §1
# [22] = target: Fuc(a1-2)Gal(b1-4)GlcNAc(b1-3)GalNAc
# Method in brief: as §1
# [23] = target: Fuc(a1-2)Gal(b1-4)GlcNAc6S
# Method in brief: as §1
# [24] = target: Fuc(a1-2)Gal(b1-4)[Fuc(a1-3)]GlcNAc
# Method in brief: as §1
# [25] = target: Fuc(a1-2)Gal(b1-4)[Fuc(a1-3)]GlcNAc(b1-2)Man(a1-3)[Fuc(a1-2)Gal(b1-4)[Fuc(a1-3)]GlcNAc(b1-2)Man(a1-6)]Man(b1-4)GlcNAc(b1-4)GlcNAc
# Method in brief: as §1
# [26] = target: Fuc(a1-2)Gal(b1-4)[Fuc(a1-3)]GlcNAc(b1-3)Gal(b1-4)[Fuc(a1-3)]GlcNAc
# Method in brief: as §1
# [27] = target: Fuc(a1-2)Gal(b1-4)[Fuc(a1-3)]GlcNAc(b1-3)Gal(b1-4)[Fuc(a1-3)]GlcNAc(b1-3)Gal(b1-4)[Fuc(a1-3)]GlcNAc
# Method in brief: as §1
# [28] = target: Fuc(a1-2)Gal6S(b1-4)Glc
# Method in brief: as §1
# [29] = target: Fuc(a1-2)Gal6S(b1-4)Glc6S
# Method in brief: as §1
# [30] = target: Fuc(a1-2)Gal6S(b1-4)GlcNAc
# Method in brief: as §1
# [31] = target: Fuc(a1-2)[Gal(a1-3)]Gal
# Method in brief: as §1
# [32] = target: Fuc(a1-2)[Gal(a1-3)]Gal(b1-3)GlcNAc
# Method in brief: as §1
# [33] = target: Fuc(a1-2)[Gal(a1-3)]Gal(b1-3)GlcNAc(b1-2)Man(a1-3)[Fuc(a1-2)[Gal(a1-3)]Gal(b1-3)GlcNAc(b1-2)Man(a1-6)]Man(b1-4)GlcNAc(b1-4)GlcNAc
# Method in brief: as §1
# [34] = target: Fuc(a1-2)[Gal(a1-3)]Gal(b1-4)Glc
# Method in brief: as §1
# [35] = target: Fuc(a1-2)[Gal(a1-3)]Gal(b1-4)GlcNAc
# Method in brief: as §1
# [36] = target: Fuc(a1-2)[Gal(a1-3)]Gal(b1-4)GlcNAc(b1-2)Man(a1-3)[Fuc(a1-2)[Gal(a1-3)]Gal(b1-4)GlcNAc(b1-2)Man(a1-6)]Man(b1-4)GlcNAc(b1-4)GlcNAc
# Method in brief: as §1
# [37] = target: Fuc(a1-2)[Gal(a1-3)]Gal(b1-4)[Fuc(a1-3)]GlcNAc
# Method in brief: as §1
# [38] = target: Fuc(a1-2)[Gal(a1-4)]Gal(b1-4)GlcNAc
# Method in brief: as §1
# [39] = target: Fuc(a1-2)[GalNAc(a1-3)]Gal
# Method in brief: as §1
# [40] = target: Fuc(a1-2)[GalNAc(a1-3)]Gal(b1-3)GalNAc(a1-3)[Fuc(a1-2)]Gal(b1-4)GlcNAc
# Method in brief: as §1
# [41] = target: Fuc(a1-2)[GalNAc(a1-3)]Gal(b1-3)GlcNAc
# Method in brief: as §1
# [42] = target: Fuc(a1-2)[GalNAc(a1-3)]Gal(b1-3)GlcNAc(b1-2)Man(a1-3)[Fuc(a1-2)[GalNAc(a1-3)]Gal(b1-3)GlcNAc(b1-2)Man(a1-6)]Man(b1-4)GlcNAc(b1-4)GlcNAc
# Method in brief: as §1
# [43] = target: Fuc(a1-2)[GalNAc(a1-3)]Gal(b1-4)Glc
# Method in brief: as §1
# [44] = target: Fuc(a1-2)[GalNAc(a1-3)]Gal(b1-4)GlcNAc
# Method in brief: as §1
# [45] = target: Fuc(a1-2)[GalNAc(a1-3)]Gal(b1-4)GlcNAc(b1-2)Man(a1-3)[Fuc(a1-2)[GalNAc(a1-3)]Gal(b1-4)GlcNAc(b1-2)Man(a1-6)]Man(b1-4)GlcNAc(b1-4)GlcNAc
# Method in brief: as §1
binder,measurement,setting,value
"Tachylectin-2 (Tachypleus tridentatus), TAL2_TACTR (protein) VGGESMLRGVYQDKFYQGTYPQNKNDNWLARATLIGKGGWSNFKFLFLSPGGELYGVLNDKIYKGTPPTHDNDNWMGRAKKIGNGGWNQFQFLFFDPNGYLYAVSKDKLYKASPPQSDTDNWIARATEIGSGGWSGFKFLFFHPNGYLYAVHGQQFYKALPPVSNQDNWLARATKIGQGGWDTFKFLFFSSVGTLFGVQGGKFYEDYPPSYAHDNWLARAKLIGNGGWDDFRFLFF",glycan array binding signal (z-score),[1],-0.163
same,glycan array binding signal (z-score),[2],-0.238
same,glycan array binding signal (z-score),[3],-0.293
same,glycan array binding signal (z-score),[4],-0.286
same,glycan array binding signal (z-score),[5],-0.277
same,glycan array binding signal (z-score),[6],-0.363
same,glycan array binding signal (z-score),[7],-0.351
same,glycan array binding signal (z-score),[8],-0.312
same,glycan array binding signal (z-score),[9],-0.293
same,glycan array binding signal (z-score),[10],-0.335
same,glycan array binding signal (z-score),[11],-0.295
same,glycan array binding signal (z-score),[12],-0.362
same,glycan array binding signal (z-score),[13],-0.284
same,glycan array binding signal (z-score),[14],-0.294
same,glycan array binding signal (z-score),[15],-0.295
same,glycan array binding signal (z-score),[16],-0.347
same,glycan array binding signal (z-score),[17],-0.316
same,glycan array binding signal (z-score),[18],-0.309
same,glycan array binding signal (z-score),[19],-0.297
same,glycan array binding signal (z-score),[20],-0.221
same,glycan array binding signal (z-score),[21],-0.238
same,glycan array binding signal (z-score),[22],-0.291
same,glycan array binding signal (z-score),[23],-0.324
same,glycan array binding signal (z-score),[24],-0.248
same,glycan array binding signal (z-score),[25],-0.285
same,glycan array binding signal (z-score),[26],-0.389
same,glycan array binding signal (z-score),[27],-0.335
same,glycan array binding signal (z-score),[28],-0.041
same,glycan array binding signal (z-score),[29],-0.291
same,glycan array binding signal (z-score),[30],-0.393
same,glycan array binding signal (z-score),[31],-0.34
same,glycan array binding signal (z-score),[32],-0.334
same,glycan array binding signal (z-score),[33],-0.294
same,glycan array binding signal (z-score),[34],-0.203
same,glycan array binding signal (z-score),[35],-0.331
same,glycan array binding signal (z-score),[36],-0.291
same,glycan array binding signal (z-score),[37],-0.323
same,glycan array binding signal (z-score),[38],-0.436
same,glycan array binding signal (z-score),[39],3.55
same,glycan array binding signal (z-score),[40],2.04
same,glycan array binding signal (z-score),[41],1.7
same,glycan array binding signal (z-score),[42],2.88
same,glycan array binding signal (z-score),[43],3.28
same,glycan array binding signal (z-score),[44],3.65
same,glycan array binding signal (z-score),[45],4.37
